Assay results from the supplement of paper PMC3334620.
In all, about 33,000 sequences were measured (“E-score (-0.5 to 0.5)”: median about -0.054, highest 2% from about 0.39 on). Some of the results follow.

target: Ylr278c (UniProt Q05854); assay: PBM E-score (8-mer binding enrichment) (E-score (-0.5 to 0.5)); higher = stronger / more preferred TF binding; most listed sequences are background and not binding sites; conditions: protein concentration: 200 nM; construct: GST-DNA-binding domain
Outline: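 Using PURExpress in vitro transcription/translation, GST-tagged yeast transcription factors were made in full-length or DNA-binding-domain form. These were applied at about 100-200 nM to double-stranded universal all-10-mer Agilent arrays, and bound protein was detected with fluorescent anti-GST. Scans were normalised with masliner before the Universal PBM Analysis Suite assigned E-scores to ungapped eight-base words pooled with their reverse complements.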

Row | Sequence | PBM E-score
1 | CCAAGTCG | -0.0159
2 | GCAGATAA | -0.0595
3 | AATTATGA | 0.0982
4 | AGCTTACG | -0.143
5 | CCCACCTC | -0.103
6 | GAGACAGC | 0.00346
7 | AATGCTGA | -0.157
8 | GCCGCTGA | 0.147
9 | GACCCTCA | -0.137
10 | GTATAAGA | -0.148
11 | CGAAGTCC | 0.38
12 | ATATACGC | -0.0877
13 | TGCCCGCA | 0.265
14 | TACTGCTA | -0.151
15 | ATCTGCTC | -0.0964
16 | AAACACAT | -0.194
17 | AGGGCCCT | -0.213
18 | AAATGACT | -0.219
19 | GCAGGTTA | -0.0146
20 | ATCAGACG | -0.167
21 | ACTGCGGG | 0.14
22 | TGGAGCAA | -0.111
23 | AGAATAGC | -0.129
24 | ATCCTCGG | 0.255
25 | AGTCGTAC | -0.187

Row | Sequence | PBM E-score
26 | CCCAATAA | -0.0977
27 | ACGAGGGG | -0.141
28 | GCGTTGAC | -0.225
29 | AAAGTCAT | -0.211
30 | AGCCATTG | -0.275
31 | AGATCCAC | -0.0299
32 | AATGTGAC | -0.2
33 | GAGCGGAA | 0.336
34 | CACGAGGG | 0.0432
35 | AGGACTAA | -0.0624
36 | ACAGGTAG | -0.278
37 | AGCAAGGA | -0.227
38 | AAACGCGC | -0.00658
39 | CGTGTGCA | -0.0995
40 | CACCCGTC | 0.0425
41 | CAAGTGGG | -0.0657
42 | CAACGGCC | 0.102
43 | AAGTGTAA | -0.163
44 | ACTCACTG | -0.148
45 | AACAACAA | -0.202
46 | GATCTCAC | 0.0769
47 | TCTCGTCA | -0.168
48 | ATCTATGC | -0.149
49 | CCGACTAA | 0.271
50 | AAGATCAA | -0.107

Row | Sequence | PBM E-score
51 | GACACTAA | 0.0137
52 | AATAGCCA | -0.256
53 | GTTGCAAA | 0.0792
54 | AATTAATC | -0.0237
55 | AGGGTCTC | -0.204
56 | CTGCATGC | -0.101
57 | CTCCGCGC | 0.429
58 | AGTGCCTC | -0.24
59 | CGCGATAG | 0.0638
60 | AAACGCAC | -0.0305
61 | GAGAACTC | -0.0192
62 | AACAGCCC | -0.0466
63 | ATCGTACG | -0.0639
64 | CCCAGGTA | -0.243
65 | CCCCTCGA | 0.0206
66 | CAATGGGC | -0.106
67 | GCTTATAC | -0.0532
68 | AGAGAGTA | -0.0223
69 | TCTGGAAA | -0.215
70 | GAGGCAAC | -0.024
71 | AAGGGATG | -0.173
72 | TCCACCGA | 0.0899
73 | CGCTGCTA | -0.0685
74 | GTTGGTAA | -0.224
75 | ACGTCCAA | 0.0759

Row | Sequence | PBM E-score
76 | CGTGGAGA | -0.0657
77 | ACGATTCG | 0.114
78 | GGCTTAAC | -0.073
79 | ATGAGCGG | 0.151
80 | AGACGACA | -0.0238
81 | ACCATAAG | -0.284
82 | ATATCTGA | 0.042
83 | GAGATTGA | -0.0337
84 | CATTCCCA | -0.0686
85 | ATGCCGCA | 0.2
86 | ACCTGGAA | -0.0949
87 | CAGACGTA | -0.145
88 | GACCAAGA | -0.0615
89 | TTCACAAA | 0.00647
90 | CAGGGATA | -0.242
91 | CCCAGCTA | -0.249
92 | GCTCATCC | -0.0325
93 | AAACCGCC | 0.217
94 | CGCACGTA | -0.121
95 | ACGCCCCC | 0.069
96 | TTACCTAA | -0.0277
97 | GAATATTA | 0.0567
98 | GGGCGTAC | 0.0219
99 | ACCATTTA | -0.0182
100 | CTGCGGTA | 0.0417

Row | Sequence | PBM E-score
101 | CCAATGCG | -0.0595
102 | GTTGAAGA | -0.25
103 | CGCCCAAC | 0.0317
104 | CAATGCGA | -0.101
105 | ACCGCTGG | -0.15
106 | AGGGACAG | -0.356
107 | AGAGTAAT | 0.0395
108 | TCATTGCA | -0.214
109 | TCTCAACA | -0.171
110 | GAACTCGC | -0.0634
111 | CCCGCGCC | 0.315
112 | AGAACGTA | -0.147
113 | AATTAGCG | 0.176
114 | ACTTCCAG | -0.106
115 | AGTAGCCG | 0.153
116 | GAAGAGGA | -0.185
117 | ACTCTTCT | -0.197
118 | AGGTCCGA | 0.404
119 | CTAGCTCC | 0.184
120 | ATTCTAAG | -0.0468
121 | AATGTCTC | 0.0265
122 | AACAATGA | -0.0711
123 | CCCTCCCC | 0.233
124 | CCACCCCG | 0.244
125 | CCTCAAAC | 0.023

Row | Sequence | PBM E-score
126 | AAAAGGGC | -0.238
127 | AGGTAGAA | -0.0888
128 | CGAGTTGA | 0.0194
129 | GCACGGAA | 0.259
130 | GCGCATCA | -0.0582
131 | AAAGGTGC | -0.152
132 | GGGACTAA | -0.0466
133 | AGCTGCTC | -0.151
134 | CAGCTTAC | -0.118
135 | AAGTCCAA | 0.0759
136 | ATCGTACC | -0.0449
137 | CACGCAAA | -0.0811
138 | AATTTCCA | 0.169
139 | GGTAGGCA | -0.151
140 | TACAGGGA | -0.0236
141 | AAGCGACC | 0.133
142 | CGTCGGAC | 0.397
143 | AACGACCA | -0.166
144 | GGGGGCTA | -0.268
145 | AGAACTGG | 0.0018
146 | GGAGGACA | 0.0763
147 | ATGCTTCA | -0.152
148 | AATGGCAT | 0.222
149 | AATACTGA | -0.238
150 | GGACCAGA | -0.0147

Row | Sequence | PBM E-score
151 | TAAGACCA | -0.26
152 | ACATACGG | 0.114
153 | GGTCTAAA | -0.171
154 | CTCCACCA | -0.135
155 | ACTTTCTA | -0.254
156 | GAAACAAC | 0.0746
157 | CGAGCTGC | -0.00491
158 | AGTCCCCG | 0.158
159 | AGTGAGAT | -0.126
160 | AATTGATC | 0.00491
161 | CCGCTGGC | -0.0712
162 | GAAACACC | 0.0566
163 | CATAAGGG | 0.0528
164 | GCCCACTA | -0.275
165 | AGCCTATA | -0.202
166 | AGGGTCGG | 0.226
167 | AGAGCACT | -0.193
168 | CGGGTATA | 0.279
169 | CCCTTGCG | -0.263
170 | ATGCGTAA | -0.1
171 | TATACCCA | -0.0534
172 | CGCAAGTC | 0.0799
